Hit rate of the full screen: of about 48,000 compounds, about 120 (0.25%) were called active. Not shown: some 4% with an inconclusive outcome. Calls come from the whole dose curve; as a rule, active = well fitted activation curve with a large enough effect; inconclusive = small, poorly fitted or top-dose-only effect, or another doubt; inactive = no such curve, though single readings can be large or run the other way. This is a selection; strong and weak results do not stand in their true shares. Entries without a call were filed so in the source.
Assay: Primary qHTS for Identification of Small Molecule Activators of Huntingtin-Antisense Promoter Activity; note: nearly all actives have a fitted effect of over 55% in size
Conditions: HEK293 HTT-AS promoter firefly luciferase reporter, 24 h; activity change, positive = activation: at 57.5 µM (top of the series), percent change from vehicle, -100% = no light
Outline: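 Firefly luciferase readout (Dual-Glo, 10 min RT) after 24 h, 37 °C compound exposure (final up to 57.5 uM) of HEK293 reporter cells cultured 24 h beforehand; PTC124 at 50 uM final as control inhibitor; activity scaled vehicle 0%, zero RLU -100%.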

Structure (SMILES) | activity change, positive = activation
C=CCc1ccccc1OCCSc1nc(-c2cccs2)nc2cc(=O)[nH]n12 | -4.38%
Cc1cc(C)c(S(=O)(=O)N2CCC(n3c(C(F)(F)F)nc4cccnc43)CC2)c(C)c1 | 1.75%
CCOc1ccc(NC(=O)CSc2oc(-c3cccs3)nc2S(=O)(=O)c2ccc(C)cc2)cc1 | inactive: -11.3%
COc1cc(C2C(=O)N(C3CCCCCC3)CC(=O)N2Cc2ccccc2)ccc1OC(C)C (stereo not given) | -17.6%
COC(=O)c1ccc(NC(=O)CN(Cc2ccccc2)S(=O)(=O)c2ccc(C)cc2)cc1 | -28.6%
CC1Cc2cc(S(=O)(=O)CCC(=O)Nc3ccc(F)cc3)ccc2N1C(=O)C1CC1 (stereo not given) | -9.98%
CN(C(=O)c1c[nH]c2ccc(S(=O)(=O)Nc3cccc(C(F)(F)F)c3)cc2c1=O)C1CCCCC1 | inactive: -20.3%
Cc1ccc(S(=O)(=O)Nc2cc3c(C(=O)OCc4ccccc4)c(C)oc3c3ccccc23)c(C)c1 | -10.9%
CCOc1ccc(C2C(=O)N(C3CCCCCC3)CC(=O)N2Cc2ccc(F)cc2)cc1OC (stereo not given) | -26.8%
Clc1ccc(Nc2nc(-c3ccccc3)c3ccccc3n2)c(Cl)c1 | inactive: 5.77%
COc1cc2oc(=O)c(CC(=O)NCCc3ccccc3)c(C)c2cc1Cl | 6.18%
Cc1ccc(NC(=O)/C(C#N)=C\c2ccc(-c3ccc(Cl)cc3)o2)c(C)c1 | inactive: -5.03%
Cc1ccc(NC(=O)Cn2cc(C(=O)C3CCCCC3)c3ccccc32)cc1 | inactive: -26.1%
Cc1ccccc1NC(=O)CSc1nc(-c2ccco2)nc2cc(=O)[nH]n12 | -11.9%
CCOc1ccc(-c2nc(CSCC(=O)NCc3ccc(C)cc3)c(C)o2)cc1 | inactive: -77.3%
Cc1coc2cc3oc(=O)c(CCC(=O)NCc4ccccc4Cl)c(C)c3cc12 | 3.62%
OC[C@]1(O)OC[C@@H](O)[C@H](O)[C@@H]1O | inactive: -1.85%
CCOC(=O)c1c(-c2ccccc2)oc2ccc(N(C(C)=O)S(=O)(=O)c3ccccc3)cc12 | -5.91%
CC(Sc1nc2c(c(=O)[nH]1)CCCC2)C(=O)Nc1cc(C(F)(F)F)ccc1Cl (stereo not given) | inactive: -7.03%
CC1(C)CC(=O)c2c(oc3c(Cl)cc(NS(=O)(=O)c4ccc(Br)cc4)cc23)C1 | -0.363%
COc1ccccc1CNC(=O)c1ccc(-c2nc(CS(=O)(=O)c3ccc(C)cc3)c(C)o2)cc1 | -30.7%
COc1cc(NS(=O)(=O)c2ccc3oc(=O)c4ncn(C)c4c3c2)cc(OC)c1 | -2.23%
Cc1ccc(C)c(N2CCN(C(=O)C3CCN(C(=O)c4cc5sccc5n4C)CC3)CC2)c1 | inactive: -43.1%
CC1=C(/C=C/C(C)=C/C=C/C(C)=C/C(=O)O)C(C)(C)CCC1 | inactive: -6.75%
Cc1ccc(C2C(=O)N(C3CCCCCC3)CC(=O)N2C(C)C)cc1 (stereo not given) | -8.93%

From PubChem BioAssay AID1508624 (National Center for Advancing Translational Sciences (NCATS), 2021)
